Where a chain is given by its changes, count along the chain named.
T1: mouse CD47 on EMT-6 cells (mouse, UniProt Q61735 19-303)
T1 construct: whole, on cells; also called cells expressing mouse CD47
T1 sequence (looked up): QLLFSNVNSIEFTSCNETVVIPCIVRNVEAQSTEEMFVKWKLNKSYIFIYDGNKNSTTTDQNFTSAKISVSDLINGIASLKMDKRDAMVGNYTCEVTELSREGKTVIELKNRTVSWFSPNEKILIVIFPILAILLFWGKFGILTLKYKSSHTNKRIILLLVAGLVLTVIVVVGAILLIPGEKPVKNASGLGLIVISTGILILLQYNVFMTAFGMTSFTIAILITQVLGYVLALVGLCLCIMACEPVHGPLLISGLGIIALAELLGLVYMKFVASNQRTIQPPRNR

B1: hSIRPa_mt9 (Fc fusion)
IgV domain - IgG4 hinge - Fc: EEELQVIQPDKSVSVAAGESAILTCTVTSLWPVGPIQWFRGAGPARELIYNQKGQNFPRVTTVSESTKRFNMDFSISISNITPADAGTYYCVKFRKGSPDTEFKSGAGTELSVRAKPS[human IgG4 Fc with S228P (EU numbers) not listed]
notes: also called hSIRPα-Fc-mt9; hSIRPaG4_mt9
B2: hSIRPα-Fc-mt4 (Fc fusion)
chain: B1 IgV domain - IgG4 hinge - Fc with T24R, G54A, Q55F, N56I, F70G
notes: also called hSIRPα-mt4
B3: hSIRPα-Fc-mt6 (Fc fusion)
chain: B1 IgV domain - IgG4 hinge - Fc with T24H, W31I, G54N, Q55L, N56I, T67G, F70E
notes: also called hSIRPα-mt6
B4: hSIRPα-Fc-mt8 (Fc fusion)
chain: B1 IgV domain - IgG4 hinge - Fc with T24H, W31K, G54R, Q55D, N56T, F70E, M72R
notes: also called hSIRPα-mt8
B5: hSIRPα-Fc-mt12 (Fc fusion)
chain: B1 IgV domain - IgG4 hinge - Fc with T24H, W31Y, Q55R, N56R, F70A
notes: also called hSIRPα-mt12
B6: hSIRPα-Fc-mt13 (Fc fusion)
chain: B1 IgV domain - IgG4 hinge - Fc with T24H, W31L, G54D, Q55F, N56L, F70E, M72R
notes: also called hSIRPα-mt13
B7: hSIRPα-Fc-mt14 (Fc fusion)
chain: B1 IgV domain - IgG4 hinge - Fc with T24H, W31A, G54L, Q55D, N56S, F70E, N71S
notes: also called hSIRPα-mt14
B8: hSIRPα-Fc-mt20 (Fc fusion)
chain: B1 IgV domain - IgG4 hinge - Fc with T24H, S29Q, W31I, G54H, Q55R, N56T, S66N, F70E
notes: also called hSIRPα-mt20
B9: hSIRPα-Fc-mt23 (Fc fusion)
chain: B1 IgV domain - IgG4 hinge - Fc with T24H, V27L, W31T, G54E, Q55G, N56P, F70G
notes: also called hSIRPα-mt23
B10: hSIRPα-Fc-mt11 (Fc fusion)
chain: B1 IgV domain - IgG4 hinge - Fc with T24H, W31L, G54S, Q55K, N56V, F70R
notes: also called hSIRPα-mt11

Experiments:
CD47-ECD-His [1] = molecular target: T2, CD47-ECD-His (Homo sapiens (Human), UniProt Q08722 part only); assay: Octet, CD47-ECD-His loaded, SET1
human CD47 on cells [2] = molecular target: T3, human CD47 on cells (human, UniProt Q08722); assay: cell-based or functional assay
human CD47 on cells [3] = molecular target: T3, human CD47 on cells; assay: flow cytometry, human RBC (015), anti-hFc-PE
human CD47 on cells [4] = molecular target: T3, human CD47 on cells; assay: flow cytometry, human RBC (024), anti-hFc-PE
human CD47 on cells [5] = molecular target: T3, human CD47 on cells; assay: flow cytometry blocking, FaDu cells + biotin-SIRPα Fc 1 µg/mL, avidin-PE
human CD47 on cells [6] = molecular target: T3, human CD47 on cells; assay: flow cytometry, Jurkat cells, anti-hFc-PE
human CD47 on cells [7] = molecular target: T3, human CD47 on cells; assay: cell-based or functional assay; remark: listed apart in the source
human CD47 on cells [8] = molecular target: T3, human CD47 on cells; assay: flow cytometry, Raji cells, anti-hFc-PE
human CD47 on cells [9] = molecular target: T3, human CD47 on cells; assay: cell-based or functional assay; remark: listed apart in the source
[10] = molecular target: T1, mouse CD47 on EMT-6 cells; assay: flow cytometry, EMT-6 cells, anti-hFc-PE
human CD47 on cells [11] = molecular target: T3, human CD47 on cells; assay: flow cytometry blocking, CD47 tf CHO-S cells + biotin-SIRPα Fc 1 µg/mL, avidin-PE
CD47-ECD-His [12] = molecular target: T2, CD47-ECD-His; assay: Octet, CD47-ECD-His loaded, SET2
human CD47 on cells [13] = molecular target: T3, human CD47 on cells; assay: flow cytometry on human platelets, donor 1
human CD47 on cells [14] = molecular target: T3, human CD47 on cells; assay: flow cytometry on human platelets (FIG. 11D)
human CD47 on cells [15] = molecular target: T3, human CD47 on cells; assay: flow cytometry, Raji cells

| Binder | Fold (compared to SIRPa wt in IgG4) (CD47-ECD-His [1]) | Kd (CD47-ECD-His [1]) [nM] | koff (CD47-ECD-His [1]) [s⁻¹] | kon (CD47-ECD-His [1]) [M⁻¹ s⁻¹] | EC50 values for phagocytosis of Jurkat cells (human CD47 on cells [2]) [nM] | IC50 (read off the curve) (human CD47 on cells [5]) [nM] | EC50 (read off the curve) (human CD47 on cells [6]) [nM] | EC50 values for phagocytosis of Raji cells (human CD47 on cells [7]) [nM] | EC50 (read off the curve) (human CD47 on cells [8]) [nM] | EC50 values for phagocytosis of FaDu cells (human CD47 on cells [9]) [nM] | IC50 (read off the curve) (human CD47 on cells [11]) [nM] | Fold (compared to SIRPa wt in IgG4) (CD47-ECD-His [12]) | Kd (CD47-ECD-His [12]) [nM] | koff (CD47-ECD-His [12]) [s⁻¹] | kon (CD47-ECD-His [12]) [M⁻¹ s⁻¹] | further results |
| --- | --- | --- | --- | --- | --- | --- | --- | --- | --- | --- | --- | --- | --- | --- | --- | --- |
| B1 | 29 | 0.139 | 0.000144 | 1.04e+06 |  |  |  |  |  |  |  |  |  |  |  |  |
| B2 | 48.2 | 0.0836 | 9.95e-05 | 1.19e+06 | 0.28 | ~0.5 | ~0.4 | 0.06 | ~0.3 | 0.09 | ~0.5 |  |  |  |  | EC50 (read off the curve) (human CD47 on cells [3]): ~0.2 nM; EC50 (read off the curve) (human CD47 on cells [4]): ~0.3 nM; binding result [10]: binds |
| B3 | 0.79 | 5.11 | 0.0084 | 1.65e+06 | 18.7 | ~50 |  | 15.9 |  | 18.2 | ~30 |  |  |  |  |  |
| B4 | 20.1 | 0.201 | 0.000222 | 1.11e+06 | 0.43 | ~0.5 | ~0.4 | 0.08 | ~0.3 | 0.22 | ~0.8 |  |  |  |  |  |
| B5 |  |  |  |  | 0.48 | ~0.5 | ~0.4 |  | ~0.3 |  | ~0.8 | 7.74 | 0.665 | 0.00062 | 932000 |  |
| B6 |  |  |  |  | 0.61 | ~0.5 | ~0.4 | 0.09 | ~0.3 | 0.26 | ~0.8 | 13.3 | 0.387 | 0.000365 | 942000 | binding result [10]: binds |
| B7 |  |  |  |  | 22.1 | ~20 |  |  |  |  | ~10 | 1.13 | 4.57 | 0.00545 | 1.19e+06 |  |
| B8 |  |  |  |  |  |  |  |  |  |  |  |  |  |  |  | EC50 (human CD47 on cells [13]): 0.247 nM |
| B9 |  |  |  |  |  |  |  |  |  |  |  |  |  |  |  | EC50 (human CD47 on cells [14]): ~0.434 nM; EC50 (read off the curve) (human CD47 on cells [15]): ~0.2 nM |
| B10 |  |  |  |  | 0.24 | ~0.5 | ~0.4 |  | ~0.3 |  | ~0.8 | 3.81 | 1.35 | 0.000624 | 463000 | EC50 (read off the curve) (human CD47 on cells [3]): ~0.2 nM; EC50 (read off the curve) (human CD47 on cells [4]): ~0.2 nM |
